Values come from read counts of a selection and are noisy.
Test system: NB7
Assay: fold depletion of shRNA, plasmid library share / infected cells without Dox share (9 days) (ratio); higher = more depleted after infection (more toxic, leaky expression from a Tet-inducible vector; NB7 is a neuroblastoma line without caspase-8)
Conditions: shRNA pool: CD95L ORF + CD95L 3'UTR + Venus libraries
Experimental: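 Pooled lethality screen in NB7 neuroblastoma cells infected with Dox-inducible pTIP shRNA libraries. The libraries tile every 21-mer of the Venus, CD95L or CD95 ORF / 3'UTR; each hairpin is the 21-nt sense sequence + CTCGAG loop + antisense. Cells were cultured 9 days with or without 100 ng/ml Dox. shRNA representation was measured by deep sequencing of the genomic inserts, normalised to the total reads per subpool and averaged over technical replicates. Fold depletion is the plasmid library share / infected cells without Dox share (mean of 2 biological replicates), and the -Dox/+Dox share ratio is the mean of 4 replicate pairings; higher values mean more depletion (toxicity).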
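Further: shRNA barcodes quantified by deep sequencing of PCR amplicons from cellular DNA, counts expressed as percent of each subpool, ratio averaged over two biological duplicates.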

Sequence | fold depletion of shRNA
ATAGGCCACCCCAGTCCACCC | 0.113
ATAGTGCTTAAAAATCATTGA | 1.18
ATATAATAAATATTTATGTAG | 0.736
ATATCACCGCCGACAAGCAGA | 5.78
ATATCCCCAGATCTACTGGGT | 9.12
ATATCCTGAGCCATCGGTGAA | 0.675
ATATGACGGAAGAACATAGAA | 0.615
ATATGGGTTGCATTTGGTCAA | 0.48
ATATGTCAACGTATCTGAGCT | 3.17
ATATTAGGAAAATATGGGTTG | 0.925
ATATTCCAAAGTATACTTCCG | 0.718
ATATTGTGAAGTACATATTAG | 0.677
ATATTTATGTAGATGTGCATT | 0.95
ATCAACTCTAATAGTGCTTAA | 0.562
ATCAATGAAACTGGGCTGTAC | 4.61
ATCACATGGTCCTGCTGGAGT | 3.07
ATCACCGCCGACAAGCAGAAG | 2.75
ATCACTCTCGGCATGGACGAG | 1.07
ATCATCTTTGGAGAAGCAAAT | 0.662
ATCATTGATTGTCAGCTACTA | 1.16

Sequence | fold depletion of shRNA
ATCATTTATATGTCAACGTAT | 0.739
ATCCCCAGATCTACTGGGTGG | 1.04
ATCCGCCACAACATCGAGGAC | 1.45
ATCCTGAGCCATCGGTGAAAC | 1.23
ATCCTGGGGCACAAGCTGGAG | 0.415
ATCCTGGTCGAGCTGGACGGC | 1.39
ATCGACTTCAAGGAGGACGGC | 0.862
ATCGAGCTGAAGGGCATCGAC | 0.915
ATCGGCGACGGCCCCGTGCTG | 0.614
ATCGGTGAAACTAACAGATAA | 0.712
ATCTACTGGGTGGACAGCAGT | 0.794
ATCTCAGACGTTTTTCGGCTT | 3.41
ATCTGAGCTCTCTCTGGTCAA | 0.647
ATCTGGTGATGATGGAGGGGA | 1.99
ATCTTACCAGTGCTGATCATT | 1.33
ATCTTAGTGCCTGAGAGTATT | 0.924
ATCTTCACTTCTAAATGCATA | 0.958
ATCTTCTTCAAGGACGACGGC | 2.01
ATCTTGCAACAACCTGCCCCT | 1.04
ATCTTTGGAGAAGCAAATAGG | 1.01

Sequence | fold depletion of shRNA
ATGAAAAAGCAGCTACCAGGT | 0.672
ATGAAAACATGTAATAAAAAG | 0.671
ATGAAACTGGGCTGTACTTTG | 0.689
ATGAACCAAGTGGACCTTGAG | 44.8
ATGACGGAAGAACATAGAACT | 0.59
ATGACTAAAGAGAGAATGTAG | 0.798
ATGAGCCAGACAAATGGAGGA | 1.24
ATGAGGAACTCTAAGTATCCC | 1.9
ATGATGAGCTACTGCACTACT | 1.04
ATGATGGAGGGGAAGATGATG | 2.73
ATGATGTTTTCCTATAATATA | 0.647
ATGATTCTTTGTTACAGGCAC | 4.56
ATGCACACAGCATCATCTTTG | 1.22
ATGCATATCCTGAGCCATCGG | 10.3
ATGCATTTGAGGTCAAGTAAG | 2.73
ATGCCACCTACGGCAAGCTGA | 3.07
ATGCCCCACTGGCAGCATCTT | 4.39
ATGCCCGAAGGCTACGTCCAG | 1.52
ATGCCTCTGGAATGGGAAGAC | 5.58
ATGCTTCCTGACAATCAACTC | 0.603

Same assay, conditions: shRNA pool: CD95 ORF + CD95 3'UTR + Venus libraries

Sequence | fold depletion of shRNA
ATAGGTAAAAGTACGTAATTA | 1.06
ATAGTCCACCAAAAGGCAAGA | 1.56
ATAGTTATAAACTGAAGCAGA | 0.929
ATATAGGTAAAAGTACGTAAT | 0.961
ATATATCACCACTATTGCTGG | 1.03
ATATATGTGTATGCATTTTAC | 1.12
ATATCACCAAAAAATACTTAA | 1.76
ATATCACCACTATTGCTGGAG | 7.63
ATATCACCGCCGACAAGCAGA | 2.63
ATATCAGTTACTGAACAGGCA | 10.8
ATATCTCATGATTCTGCCTCC | 1.41
ATATCTTTGAAAGTTTGTATT | 0.867
ATATGATTCTGTAGTATGAAT | 1.1
ATATGCAATTAGTGTTTGAAA | 1.25
ATATGTATTTGAGTGCAGAAT | 1.04
ATATGTGTATGCATTTTACTG | 2.25
ATATTATACAATATTTCAATT | 0.925
ATATTTATATTTCTGTAAATG | 1.73
ATATTTATGTAAAGTATATGT | 0.762
ATATTTCAATTGTGAATTCAC | 0.859
ATATTTCTAAACTTTGTTTAT | 0.968
ATATTTCTGTAAATGTAAACT | 0.928
ATATTTGTAGATTTTTAATAT | 1.07
ATCAAAAGCATTTTGAGCAGG | 1.4
ATCAAAGATGATAAAATAGAT | 0.971

Sequence | fold depletion of shRNA
ATCAACTCCAAGGGATTGGAA | 0.97
ATCAACTTCATGGAAAGAAAG | 0.734
ATCAAGAATGACAATGTCCAA | 1.13
ATCAAGAGTAAATGCAGTGGC | 3.98
ATCAAGGAATGCACACTCACC | 1.17
ATCAAGGCCAACTTCAAGATC | 0.898
ATCAATAGAAGAAGCTATGAC | 1.18
ATCACATGGTCCTGCTGGAGT | 1.99
ATCACCAAAAAATACTTAATA | 0.879
ATCACCACTATTGCTGGAGTC | 1.75
ATCACCGCCGACAAGCAGAAG | 1.12
ATCACTCTCGGCATGGACGAG | 1.45
ATCAGTGTATGTTAGTACAAA | 0.959
ATCATATTTATGTAAAGTATA | 1.01
ATCATCAAGGAATGCACACTC | 1.18
ATCATCATCTGGATTTAGGAA | 1.23
ATCATCCTCAAGGACATTACT | 1.4
ATCATCTGGATTTAGGAATTG | 1.23
ATCATGATGGCCAATTCTGCC | 1.87
ATCCACAGGCTAACCCCACTC | 2.31
ATCCGCCACAACATCGAGGAC | 1.03
ATCCTACGTTTAAATATCTTT | 0.852
ATCCTCAAGGACATTACTAGT | 1.19
ATCCTGAAACAGTGGCAATAA | 1.03
ATCCTGGGGCACAAGCTGGAG | 0.557

Sequence | fold depletion of shRNA
ATCCTGGTCGAGCTGGACGGC | 1.29
ATCGACTTCAAGGAGGACGGC | 1
ATCGAGCTGAAGGGCATCGAC | 0.977
ATCGGCGACGGCCCCGTGCTG | 0.818
ATCGTCCAAAAGTGTTAATGC | 2.97
ATCTAACATATGATTCTGTAG | 1.52
ATCTAACTTGGGGTGGCTTTG | 1.29
ATCTAGTTGGGAAAACAAACT | 1.42
ATCTCAAAAAAGCCAATCTTT | 0.707
ATCTCATGATTCTGCCTCCAA | 1.35
ATCTCCAACTTTAAATCCTGA | 1.1
ATCTGATGTTGACTTGAGTAA | 1.01
ATCTGCACCACCGGCAAGCTG | 2.45
ATCTGGACCCTCCTACCTCTG | 1.98
ATCTGGATTTAGGAATTGCTC | 7.35
ATCTTAATGGCCTAATGCACC | 1.39
ATCTTCTTCAAGGACGACGGC | 1.53
ATCTTTGAAAGTTTGTATTAA | 0.637
ATCTTTGTACTCTTGCAGAGA | 0.815
ATGAAAGATTAAGATTATGCT | 0.875
ATGAAATCCAAAGCTTGGTCT | 1.74
ATGAACCAGACTGCGTGCCCT | 0.878
ATGAAGCAGCACGACTTCTTC | 4.02
ATGAAGCCAAAATAGATGAGA | 1.92
ATGAAGGACATGGCTTAGAAG | 1.23

Sequence | fold depletion of shRNA
ATGAATCAATAGAAGAAGCTA | 0.849
ATGAATCTCCAACTTTAAATC | 0.725
ATGAATGTAATCAGTGTATGT | 0.707
ATGACAATGTCCAAGACACAG | 1.01
ATGACACATTGATTAAAGATC | 1.51
ATGACACTAAGTCAAGTTAAA | 0.977
ATGACCTTTTGCTGAAATATC | 1.58
ATGAGATCAAGAATGACAATG | 1.18
ATGATAAAATAGATTCTTATT | 0.815
ATGATTCTGCCTCCAAGGATG | 2.01
ATGATTCTGTAGTATGAATGT | 1.02
ATGCAATTAGTGTTTGAAAAG | 0.984
ATGCACACTCACCAGCAACAC | 2.24
ATGCACCCCCAAACATGGAAA | 2.86
ATGCAGAAAGCACAGAAAGGA | 2.6
ATGCAGAAGATGTAGATTGTG | 1.05
ATGCAGAGGATGAAAGATTAA | 0.859
ATGCATTTTACTGGCTCAAAA | 1.99
ATGCCACCTACGGCAAGCTGA | 1.52
ATGCCCAAGTGACTGACATCA | 3.8
ATGCCCGAAGGCTACGTCCAG | 1.73
ATGCTAAGTACCCAAATAGGA | 1.33
ATGCTCTGGCATCTAACATAT | 1.39

— the supplement of paper PMC5655136
